Data on 62 molecules can be found in PubChem BioAssay AID493208 (National Center for Advancing Translational Sciences (NCATS), 2011).

Hit rate of the full screen: of about 44,000 compounds, about 340 (0.77%) were called active. About 5% were inconclusive and are not listed. Calls come from the whole dose curve; as a rule, active = well fitted inhibition curve with a large enough effect; inconclusive = small, poorly fitted or top-dose-only effect; inactive = flat fitted curve, though single readings scatter. The list shows a part of the results.
Potency is the fitted concentration of half-maximal effect.

A short description of the assay: Acumen qHTS Assay for Inhibitors of the mTORC1 Signaling Pathway in MEF (Tsc2-/-, p53-/-) Cells: Sytravon.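 For activity change, negative = inhibition: plate controls were DMSO for no effect and rapamycin for full effect.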 Note: nearly all actives have a fitted effect of over 50% in size. The following applies: phospho-rpS6 immunofluorescence/PI, 24 h; series mostly up to 38.3 µM; activity change, negative = inhibition: at the top concentration. In short, it runs like this:
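Cell-based qHTS: Tsc2-/- p53-/- MEF, 24 h cpd, 37 °C; fix/perm, anti-phospho-S6 Alexa-488 + PI; Acumen 488 nm scan; pS6/PI ratio, % positive cells; rapamycin 7.5 nM = inhibition ref; PI count = viability.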
For `Cc1cccc(CNC(=O)CS(=O)(=O)c2cccc3nsnc23)c1`, the “activity change, negative = inhibition” value is inactive: 2.55%.

As to `CCN(C(=O)c1cnc2ccc(C)cn2c1=O)c1ccccc1`, the “activity change, negative = inhibition” value was inactive: -0.324%.

As to `COCCNC(=O)c1cnc2sc(N3CCC(C)CC3)nn2c1=O`, the “activity change, negative = inhibition” value was inactive: 0%.

Take `CCc1ccc(NC(=O)C2CCN(c3nn4c(=O)cc(C)nc4s3)CC2)cc1`: the “activity change, negative = inhibition” value was inactive: -6.53%.

On to `Clc1ccc(-c2noc3ncnc(NCCc4ccccc4)c23)cc1`, for which the “activity change, negative = inhibition” value is inactive: 6.04%.

In the case of `O=C(Nc1ccc2c(c1)CCCN2C(=O)c1cccs1)c1ccccc1Cl`, the “activity change, negative = inhibition” value was inactive: 0%.

As for `COc1cc(OC)c(Nc2nc3ccc(C(=O)c4ccccc4)cc3n3c(C)nnc23)cc1Cl`, the “activity change, negative = inhibition” value was inactive: -2.31%.

In the case of `O=C(Nc1ccc(OC(F)(F)F)cc1)c1cc2ccccn2n1`, the “activity change, negative = inhibition” value was inactive: -0.896%.

For `O=c1nc2n(-c3ccccc3F)c3ccccc3cc-2c(=O)[nH]1`, the “activity change, negative = inhibition” value was inactive: -10.3%.

On to `CCCCn1cc2c(c1-c1ccc(Cl)cc1)c(=O)n(C)c(=O)n2C`, for which the “activity change, negative = inhibition” value is inactive: -13.3%.

With `Cc1cc(C)cc(NS(=O)(=O)c2cc3c(cc2C)NC(=O)CO3)c1`, the “activity change, negative = inhibition” value is inactive: 3.31%.

Consider `CCC(=O)N(CCC(c1ccccc1)c1ccc2c(c1)OCO2)Cc1ccc(OC(C)C)cc1` (configuration not stated), for which the “activity change, negative = inhibition” value is inactive: -0.946%.

As for `CCOC(=O)c1c(NC(=O)c2ccc(S(=O)(=O)N(CC(C)C)CC(C)C)cc2)sc2c1CCN(C(=O)OCC)C2`, the “activity change, negative = inhibition” value was inactive: -18.5%.

`COc1ccc(NC(=O)CSc2nnc(-c3nonc3NC(C)=O)n2-c2ccccc2)cc1`: the “activity change, negative = inhibition” value was inactive: 2.12%.

`COc1ccc(Cl)cc1NC(=O)c1sc2nc3n(c(=O)c2c1C)CCC3`: the “activity change, negative = inhibition” value is inactive: 6.11%.

`CCCN(C(=O)Cn1cnc2onc(-c3ccc(F)cc3)c2c1=O)c1cccc(Cl)c1`: the “activity change, negative = inhibition” value was inactive: -5.65%.

Consider `CCC(Sc1nc2ccccc2c(=O)n1CCc1ccc(OC)c(OC)c1)C(=O)N(CC)CC` (configuration not stated), for which the “activity change, negative = inhibition” value is inactive: -6.68%.

For `Cc1cc(C)n(-c2nc3ccccc3nc2Nc2cccc(C)c2C)n1`, the “activity change, negative = inhibition” value was inactive: -3.66%.

On to `CCOc1ccc(CCNS(=O)(=O)c2cc(Br)cc3c2N(C(C)=O)CC3)cc1OCC`, for which the “activity change, negative = inhibition” value is inactive: -0.36%.

Regarding `COC(=O)c1c(NC(=O)CCCOc2cccc(C)c2)sc2c1C(C(=O)OC)CC2` (configuration not stated), the “activity change, negative = inhibition” value was inactive: -3.06%.

`CCN(CC)C(=O)Cn1c(=O)n(Cc2ccc(C(=O)NCCc3ccc(OC)c(OC)c3)cc2)c(=O)c2ccccc21`: the “activity change, negative = inhibition” value was inactive: 2.02%.

On to `CCc1ccc(CN(Cc2cn[nH]c2-c2ccc(OC)cc2)C(=O)Nc2cc(Cl)ccc2OC)cc1`, for which the “activity change, negative = inhibition” value was inactive: -2.07%.

Regarding `Cc1ccc(-n2ncc(C(=O)NCc3ccco3)c2C2CCN(C(=O)OC(C)(C)C)CC2)c(C)c1`, the “activity change, negative = inhibition” value was inactive: 0.018%.

As to `CC(=O)c1ccc(N2C(=O)N(CC(=O)c3ccc(F)cc3)c3ccccc3S2(=O)=O)cc1`, the “activity change, negative = inhibition” value was inactive: -6.16%.

As to `Cc1ccc(-n2ncc3c(NC4CCCCCC4)ncnc32)cc1Cl`, the “activity change, negative = inhibition” value is inactive: 12.5%.

For the molecule `COc1ccc(S(=O)(=O)NCCc2csc(-c3ccc(F)cc3)n2)cc1F`, the “activity change, negative = inhibition” value is inactive: -2.34%.

As to `Cc1sc2ncn(CC(=O)N(C)c3ccc(Br)cc3)c(=O)c2c1S(=O)(=O)N1CCC(C)CC1`, the “activity change, negative = inhibition” value is inactive: -0.862%.

Turning to `Cc1nc2c(C(=O)NCc3ccccc3)c[nH]n2c(=O)c1Cc1ccccc1Cl`, the “activity change, negative = inhibition” value is inactive: 4.62%.

In the case of `Cc1cccc(NC(=O)c2c(C)oc3ncn(CC(C)C)c(=O)c23)n1`, the “activity change, negative = inhibition” value was inactive: 6.91%.

Regarding `CC(=O)N1CCc2cc(S(=O)(=O)CCC(=O)N3CCN(c4cccc(C)c4C)CC3)ccc21`, the “activity change, negative = inhibition” value was inactive: -5.54%.

For the molecule `COc1ccc(NC(=O)c2noc3c2CCCC3)cc1Cl`, the “activity change, negative = inhibition” value was inactive: -14%.

On to `O=C(NCCc1ccccc1)c1cc(-c2ccc(Cl)cc2)on1`, for which the “activity change, negative = inhibition” value is inactive: 5.63%.

Regarding `COc1cccc(NC(=O)Nc2cccc(-c3cn4cccnc4n3)c2)c1`, the “activity change, negative = inhibition” value is inactive: 1.55%.

As to `CCOc1ccc(-c2nnc(Nc3ccc(S(N)(=O)=O)cc3)c3ccccc23)cc1`, the “activity change, negative = inhibition” value was inactive: 11.3%.

Turning to `CCCOC1(C(F)(F)F)NC(=O)N(c2ccc(Cl)cc2)C1=O` (configuration not stated), the “activity change, negative = inhibition” value was inactive: 7.61%.

In the case of `Cc1cc(C)c(NC(=O)CSc2nc(=O)[nH]c3c2CCCC3)c(C)c1`, the “activity change, negative = inhibition” value is inactive: -1.61%.

With `O=C(NC(=O)c1ccc(F)cc1)Nc1ccc(-c2cc(C(F)(F)F)nn2-c2ccccc2)cc1`, the “activity change, negative = inhibition” value was inactive: -7.3%.

As for `O=C(NCCc1csc2nc(-c3ccccc3F)nn12)c1ccco1`, the “activity change, negative = inhibition” value was inactive: 0.0684%.

Consider `Cc1oc2c(c(C)cc3oc(=O)c(CC(=O)NCCc4ccccc4)c(C)c32)c1C`, for which the “activity change, negative = inhibition” value is inactive: 4.88%.

Take `CN1C(C(=O)c2ccccc2)=C(OC(=O)c2ccc(Br)cc2)c2ccccc2S1(=O)=O`: the “activity change, negative = inhibition” value is inactive: -2.36%.

For `Cc1ccc(NC(=O)Nc2ccc3c(c2)N(C)C(=O)c2ccccc2S3)c(C)c1`, the “activity change, negative = inhibition” value was inactive: -18.8%.

On to `COc1ccccc1NC(=O)c1c(NCc2ccc(OC)c(OC)c2OC)sc2c1CCCC2`, for which the “activity change, negative = inhibition” value was inactive: -10.1%.

Take `CCOC(=O)c1c(C)[nH]c(C)c1S(=O)(=O)NCC(=O)Nc1cc(C)ccc1OC`: the “activity change, negative = inhibition” value is inactive: 4.87%.

Turning to `CCN1CCN(CCCNC(=O)c2cnn(-c3ccccc3)c2C2CCN(C(=O)OC(C)(C)C)CC2)CC1`, the “activity change, negative = inhibition” value was inactive: 1.27%.

As for `COc1ccc(N2CCN(S(=O)(=O)CCNC(=O)C(c3ccccc3)c3ccccc3)CC2)cc1`, the “activity change, negative = inhibition” value is inactive: -0.73%.

In the case of `COc1cccc(C2C=C(c3ccc(C)c(C)c3)Nc3nnnn32)c1OC` (configuration not stated), the “activity change, negative = inhibition” value is inactive: -18%.

Turning to `Cc1ccc(C)c(CN2C(=O)C(=O)c3ccccc32)c1`, the Potency is active: 2.93 µM.

Consider `O=C1CSC2(C(=O)N(Cc3ccccc3F)c3ccccc32)N1c1ccc(F)cc1` (configuration not stated), for which the “activity change, negative = inhibition” value was inactive: -3.77%.

For `COc1ccc(-n2ccnc2SCC(=O)Nc2ccc(F)cc2F)cc1`, the “activity change, negative = inhibition” value is inactive: -5%.

`Cc1cc2nn(-c3ccccc3)nc2cc1NC(=O)c1cccc2c(Cl)cccc12`: the “activity change, negative = inhibition” value is inactive: 13.5%.

For `O=C(NCCc1ccccc1)c1ccc(CS(=O)(=O)c2ccc(Br)cc2)o1`, the “activity change, negative = inhibition” value was inactive: 0.328%.

With `Cc1ccc2onc(CNC(=O)N3CCN(c4cccc(C)c4C)CC3)c2c1`, the “activity change, negative = inhibition” value was inactive: -16.1%.

Take `COc1ccc(-c2cc(C(=O)Nc3cccnc3Cl)no2)cc1OC`: the “activity change, negative = inhibition” value is inactive: 1.62%.

Consider `COc1ccc(CCC(=O)N2CCc3c([nH]c4ccccc34)C2c2ccc(F)cc2)cc1` (configuration not stated), for which the “activity change, negative = inhibition” value is inactive: -10.2%.

`Cc1nc2cccnc2n1-c1cccc(C(=O)N2CCN(c3ccc(Cl)cc3)CC2)c1`: the “activity change, negative = inhibition” value was inactive: -14.7%.

Regarding `CCC(=O)N1c2ccccc2CC1C(=O)NCc1ccc(OC(C)C)cc1` (configuration not stated), the “activity change, negative = inhibition” value was inactive: 2.48%.

For `CCN(CCCNC(=O)Cn1ncc2c([nH]c3ccc(C)cc32)c1=O)c1cccc(C)c1`, the “activity change, negative = inhibition” value is inactive: -3.61%.

For the molecule `COc1ccc(C2CC(=O)Nc3c2c(C)nn3-c2nncc(-c3ccc(C)cc3)n2)c(OC)c1OC` (configuration not stated), the “activity change, negative = inhibition” value is inactive: 2.9%.

Turning to `Cc1cccc(CCNC(=O)c2sc3nc4n(c(=O)c3c2C)CCCC4)c1`, the “activity change, negative = inhibition” value is inactive: -2.39%.

For `CCc1ccccc1NC(=O)c1ccc2c(c1)N(Cc1cccc(Cl)c1)C(=O)c1ccccc1S2(=O)=O`, the “activity change, negative = inhibition” value is inactive: -8.19%.

Consider `Cc1csc2nc(-c3cccc(NC(=O)C(C)C)c3)cn12`, for which the “activity change, negative = inhibition” value was inactive: 0%.

Consider `CCOc1ccc(-c2nc(SCC(=O)Nc3ccc4c(c3)OCO4)c(-c3ccc(F)cc3)[nH]2)cc1`, for which the “activity change, negative = inhibition” value was inactive: -31.3%.
